Experimental data published in paper PMC7819943, “Rice protein-binding microarrays: a tool to detect cis-acting elements near promoter regions in rice”.
The list shows a part of the results.

These sequences were tested against T1, OsWOX13 (Oryza sativa, UniProt Q5QMM3 1-267) (assay: protein-binding microarray (RPBM); PBS, 2% BSA, 51.3 ng/ul salmon testes DNA, 50 uM zinc acetate, 200 nM TF, 25 C, 1 h; high values mean tight binding). Conditions: protein: recombinant; tags: N-terminal polyhistidine and DsRed monomer fusion (pET32a); label: CyDye5-dUTP incorporated in the synthesized complementary strand; 3' TTTTT single-stranded linker to array surface; dsDNA, one strand shown.
T1 sequence: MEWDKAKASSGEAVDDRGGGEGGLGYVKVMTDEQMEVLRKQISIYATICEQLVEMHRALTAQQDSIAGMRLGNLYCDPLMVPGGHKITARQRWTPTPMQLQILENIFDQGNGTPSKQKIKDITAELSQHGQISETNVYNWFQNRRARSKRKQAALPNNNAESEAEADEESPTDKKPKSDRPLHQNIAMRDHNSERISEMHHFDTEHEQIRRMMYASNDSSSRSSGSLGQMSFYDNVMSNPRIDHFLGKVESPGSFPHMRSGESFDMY
Method in brief: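 The binding signal for each feature is its fluorescence intensity in arbitrary units. An Axon 4000B scanner was used to read a custom Agilent array that had been made double-stranded with Cy5-dUTP primer extension, blocked with 2% BSA, incubated at 25 °C for 1 h with 200 nM protein in PBS, 2% BSA, salmon testes DNA and 50 µM zinc acetate, and washed. The protein was an N-terminal polyhistidine–DsRed transcription factor fusion from E. coli BL21-CodonPlus, purified on Ni–NTA.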

Sequence	binding signal
TTCACATAATTTTGAATCGTTGGATCTATTACAAGATTTGCGGAGTCACCTAGTGCAG	3920 fluorescence intensity (a.u.)
AATTAATTGTGCGTGCCCGCTCGATCTGATGCTACCGAGCCGGAGTCACCTAGTGCAG	19400 fluorescence intensity (a.u.)
GATTTAGATTTTATATTTATTATGTTGATTAAACCAAAATCGGAGTCACCTAGTGCAG	4330 fluorescence intensity (a.u.)
AAGAGGAATTAATGCAGGATTGCCTGTCCTGTCATCCTAGCGGAGTCACCTAGTGCAG	3940 fluorescence intensity (a.u.)
AATTAATCCATAATTAGCACATGTTTACTATAGCATCACACGGAGTCACCTAGTGCAG	12800 fluorescence intensity (a.u.)
ATGATATAATTTCCACAAGAACATTTATTCCCTCCCTACTCGGAGTCACCTAGTGCAG	4790 fluorescence intensity (a.u.)
ATTAATTAGCATGGCAAAGGAACTAATACTGGTCGGTTAGCGGAGTCACCTAGTGCAG	25800 fluorescence intensity (a.u.)
TTCCTACGTTTTATCAATCATGCGATTCAAAGGGGCCCTCCGGAGTCACCTAGTGCAG	8010 fluorescence intensity (a.u.)
ATTTGCTGTGATTATTGTGATATCCACTTTATATAACTGCCGGAGTCACCTAGTGCAG	9290 fluorescence intensity (a.u.)
GGTCTTGTTAATCGCTTAATTACTCACATAGTTAAGAAAACGGAGTCACCTAGTGCAG	6860 fluorescence intensity (a.u.)
GAAATGAAATTACTACTGTAAATAATCTTGTTAAGTAGGACGGAGTCACCTAGTGCAG	3750 fluorescence intensity (a.u.)
AAACTGTTCAAATTTCAATTTGTTATATATCGTAACGTGCCGGAGTCACCTAGTGCAG	6160 fluorescence intensity (a.u.)
CAATAGTAACAAGGGAGATGTGATTGACGACGCAGGATTCCGGAGTCACCTAGTGCAG	13800 fluorescence intensity (a.u.)
CAAAGAGTCAAATTATCCAAATTTGTGCATTAAACAGTGCCGGAGTCACCTAGTGCAG	5850 fluorescence intensity (a.u.)
ATATATCAATCAGGTAAGGCGCAACATGATGTCTCGTTCACGGAGTCACCTAGTGCAG	12300 fluorescence intensity (a.u.)
ATGATTAGAAGAATACACTGCGTTGAATGAACGGCAATAACGGAGTCACCTAGTGCAG	13500 fluorescence intensity (a.u.)
GTACTAACTGGTTTCGTTCAATTTATTTTACATCTTATCACGGAGTCACCTAGTGCAG	8080 fluorescence intensity (a.u.)
ACCTTCTAGTCAAATTAAAATTAAGGTGTTCACAGCCTACCGGAGTCACCTAGTGCAG	5680 fluorescence intensity (a.u.)
TACACATTTTCTCTCTGATTTACGAGTCTAATGACTGATTCGGAGTCACCTAGTGCAG	3420 fluorescence intensity (a.u.)
TCACCCGGATATTAATTGAAACAAAGTTCAGTACAGAGTACGGAGTCACCTAGTGCAG	11300 fluorescence intensity (a.u.)
CACCTCAAATTTGGAAACAACTGTCACCGCCATCGACGATCGGAGTCACCTAGTGCAG	3220 fluorescence intensity (a.u.)

Sequence	binding signal
CGATTAGGTCTAACTGATTAACTCTTAATTTTGCGTCTCACGGAGTCACCTAGTGCAG	8580 fluorescence intensity (a.u.)
GAAATCATTTCCATTTCCAATTTAGCCAAACATTGCCTCACGGAGTCACCTAGTGCAG	4940 fluorescence intensity (a.u.)
AAATTTTGACTAATAATTGAACAAAAGTATACTTCATATGCGGAGTCACCTAGTGCAG	21200 fluorescence intensity (a.u.)
ATCCACAATTAGCACATTGTTACTATAGCATCACATAGGCCGGAGTCACCTAGTGCAG	3500 fluorescence intensity (a.u.)
TTACTCAGATCAGATTAATTTGAACCAAACTACCATTCGACGGAGTCACCTAGTGCAG	3960 fluorescence intensity (a.u.)
CCAAAGACCAAGAAATAATTATTATCATCTTGTAGTTTGGCGGAGTCACCTAGTGCAG	3240 fluorescence intensity (a.u.)
CATTTTGTCAATTCAATAATTAACATCACCCAAAACTTAACGGAGTCACCTAGTGCAG	15000 fluorescence intensity (a.u.)
AAGACATGATTATTTTGTATTATGACGTTAAATAAAGCCCCGGAGTCACCTAGTGCAG	28200 fluorescence intensity (a.u.)
ACTGGAACAGATGAAATTGGTAGAAATTGGAATCGGTCATCGGAGTCACCTAGTGCAG	9490 fluorescence intensity (a.u.)
TAGACTGATTATAATTATTTACACGTACCATAATGGTTTACGGAGTCACCTAGTGCAG	36400 fluorescence intensity (a.u.)
TGACAAAATATTGACAGGATTTCGTTACCAAAATTTGGCACGGAGTCACCTAGTGCAG	6100 fluorescence intensity (a.u.)
AACGTAAATTAATAACAAAACAAATTACAGATTTCGCCTGCGGAGTCACCTAGTGCAG	31100 fluorescence intensity (a.u.)
GACCGAGATGAGATTGATAAACTACCCAAGTTAGCAAAGTCGGAGTCACCTAGTGCAG	19100 fluorescence intensity (a.u.)
TATTAATTAATTAACCTTAATTAATAAACAGGCAAAAGAACGGAGTCACCTAGTGCAG	40700 fluorescence intensity (a.u.)
GTAACAGAATCTAATGACATCAATTATAATCACGTCAGGTCGGAGTCACCTAGTGCAG	17300 fluorescence intensity (a.u.)
ATACAGTGAATAGTGATATATGATTGGAGGGACAAGCGGACGGAGTCACCTAGTGCAG	9480 fluorescence intensity (a.u.)
GTACTAGCTTAATTAATGCAACGGAAAGATTAAACTTTTGCGGAGTCACCTAGTGCAG	5740 fluorescence intensity (a.u.)
GTTAGATACCGTTAATTTTGTCAAAATGACCAGATTGCCCCGGAGTCACCTAGTGCAG	5830 fluorescence intensity (a.u.)
CATATTATCAAATCATGGAGCAATTAGGCTTAAAAGATTCCGGAGTCACCTAGTGCAG	7060 fluorescence intensity (a.u.)
CTGTATTATCTGATTAATTGTTGTCAATTCATCAGACAAACGGAGTCACCTAGTGCAG	25000 fluorescence intensity (a.u.)
CCATTGTGACTGGCCTAATTAACCGAATCAAAGATACAGTCGGAGTCACCTAGTGCAG	17100 fluorescence intensity (a.u.)

Sequence	binding signal
ATGTAATTATCATTTATTTTATTATGACTTGATTCGTCATCGGAGTCACCTAGTGCAG	29400 fluorescence intensity (a.u.)
TGTAATTACCTTTTACAAACTTTTATGCTATTTCCTCCTACGGAGTCACCTAGTGCAG	16700 fluorescence intensity (a.u.)
TTCAAATTTTATATAGTCCAATCAAACTCGAATGGAGAAACGGAGTCACCTAGTGCAG	5270 fluorescence intensity (a.u.)
TTTTAATTTTAACGTGAACTAAACACATCATAAACGGATTCGGAGTCACCTAGTGCAG	19900 fluorescence intensity (a.u.)
AATAATTGATCAGGTTTTGTGGCAATAGATAGTTCGTATCCGGAGTCACCTAGTGCAG	28200 fluorescence intensity (a.u.)
TATATATATAATGCTTCAATCATACAGATCTGGAGTACAACGGAGTCACCTAGTGCAG	4720 fluorescence intensity (a.u.)
CCCCTTAATGATTTCAGTTCTTCAGCTTCAGTAATCAGTACGGAGTCACCTAGTGCAG	11300 fluorescence intensity (a.u.)
AGAGTTGATTTCTACAGAACATATTTGAATTTATCTGATGCGGAGTCACCTAGTGCAG	7650 fluorescence intensity (a.u.)
AGTGATTAATTACACTGAGCTGGAAGCTAGCCTTGACCTGCGGAGTCACCTAGTGCAG	39000 fluorescence intensity (a.u.)
AGATAATTATATCTATAGACTCGATGAATTGGGAGTGTCCCGGAGTCACCTAGTGCAG	39200 fluorescence intensity (a.u.)
TGAAAATTGGCTTTTCTCTTATATGCCATTGGTCCAAATTCGGAGTCACCTAGTGCAG	5220 fluorescence intensity (a.u.)
TCGCCCCAATCACGCGCGTTAACTCCCGCGCCGCGCCGCCCGGAGTCACCTAGTGCAG	31600 fluorescence intensity (a.u.)
TCTGAACATTTTAATCACGTCAATCCGTCTTACGTGACAACGGAGTCACCTAGTGCAG	9460 fluorescence intensity (a.u.)
CTAATTTAATGGATGCAGTATAGCTTGATAAATAAACCATCGGAGTCACCTAGTGCAG	15500 fluorescence intensity (a.u.)
CCCATAACTAAAATCACGAATTTGCGATGTCTTGTAGTAACGGAGTCACCTAGTGCAG	8270 fluorescence intensity (a.u.)
TCAGCTTATCAACCGATCATAATTAGCCAAGTCGAAACACCGGAGTCACCTAGTGCAG	3500 fluorescence intensity (a.u.)
ACTAGTCACACAAATTACCGTGCTTCATCAACGACACTTTCGGAGTCACCTAGTGCAG	3450 fluorescence intensity (a.u.)
CAAGAAAATGATTGGCTGATTTTCTTACAAATATCTAGGACGGAGTCACCTAGTGCAG	47100 fluorescence intensity (a.u.)
AACTGATTGTACCTAACAACCATCAGTACCAACAATAGTGCGGAGTCACCTAGTGCAG	31600 fluorescence intensity (a.u.)
CTTAACTAGTCAACCCATAAACACGATTACAATACTCCACCGGAGTCACCTAGTGCAG	4170 fluorescence intensity (a.u.)
GGATAATCTGATTACCGAGTGATAATCCACGGTATATACACGGAGTCACCTAGTGCAG	11500 fluorescence intensity (a.u.)

Sequence	binding signal
TCTTAATTCGCATCATTTCGGCATTTCCATTGCTAGGGTTCGGAGTCACCTAGTGCAG	3630 fluorescence intensity (a.u.)
TGTTCCAATAACTTGATATGATGGATGGGAGGTCAATCTTCGGAGTCACCTAGTGCAG	3520 fluorescence intensity (a.u.)
CAATTGTGAAATAATTAATTAAATTATCATTAAGCCCCAACGGAGTCACCTAGTGCAG	30300 fluorescence intensity (a.u.)
GGCGAAACAATCTAGAATAAATTGAAAAGTTTGGTTCAAACGGAGTCACCTAGTGCAG	10300 fluorescence intensity (a.u.)
TATCTATCATTCTATCATTCTATCTATCTATATCTCTCGCCGGAGTCACCTAGTGCAG	3970 fluorescence intensity (a.u.)
ATTTAATCACCGACCTTACACCAGCAGCAGTCCACCACCCCGGAGTCACCTAGTGCAG	4540 fluorescence intensity (a.u.)
AATAATGATTGCCGCGTAGTAGGAAACAAGATCTATTATGCGGAGTCACCTAGTGCAG	39900 fluorescence intensity (a.u.)
GTAATTGGGCTTTCTTTGGGTAGTTATCGCTGGGCTTAATCGGAGTCACCTAGTGCAG	6360 fluorescence intensity (a.u.)
CACATCATTATAAGTTAAAATTTAACTCGTAGATTCACTCCGGAGTCACCTAGTGCAG	3380 fluorescence intensity (a.u.)
AAAGGATAATAATTATTTGAGAATATATAGATATATAGAACGGAGTCACCTAGTGCAG	3180 fluorescence intensity (a.u.)
GGGGTAGATTTGCATTTGCATCAGCACGATCACAAAGCTTCGGAGTCACCTAGTGCAG	5440 fluorescence intensity (a.u.)
GTCCGAATCTTAATCACACACATGTAATGTTAACCTCATTCGGAGTCACCTAGTGCAG	3360 fluorescence intensity (a.u.)
TCAGATTGTTTGCTCCCACTGCAAGAGGTCTGGTCACCGTCGGAGTCACCTAGTGCAG	3710 fluorescence intensity (a.u.)
GGAAGGGGATTGAAGGCTCATCAATGTGGTTGGGTGTGGTCGGAGTCACCTAGTGCAG	11800 fluorescence intensity (a.u.)
TAGTCTGATAATGACAATGATGATTAGATAATGAGCAAAGCGGAGTCACCTAGTGCAG	10300 fluorescence intensity (a.u.)
CATTATGATGACTTGATGAAGAGCCGGACCCATTGAACAGCGGAGTCACCTAGTGCAG	3200 fluorescence intensity (a.u.)
GCCATGTCACCTCTTTCTAATTACACATTTACAACAGAAACGGAGTCACCTAGTGCAG	5740 fluorescence intensity (a.u.)
CCTGATCAAAATTGAGAGGGCCAAGATTTGAGGCAAAACTCGGAGTCACCTAGTGCAG	10900 fluorescence intensity (a.u.)
GGGAGATTTGTTGCAACGGAGGGCATTGAGTGGTGGGGACCGGAGTCACCTAGTGCAG	3340 fluorescence intensity (a.u.)
CAACTGGGTTAATCTCAATCAAAATATATACTCCCTCTAACGGAGTCACCTAGTGCAG	11300 fluorescence intensity (a.u.)
TCATTAATTGTTTCTGTTACATACTGGAGTAGTAAGGATACGGAGTCACCTAGTGCAG	22100 fluorescence intensity (a.u.)
